Experimental data from paper PMC10050012.
No constants are given. Whether binding was seen depends on the method and setting. For some assays here: Binding seen in cells or lysates may run through a third protein. Some binding calls cover weakened binding; strength is not graded here.

Sequences of proteins named here, by UniProt entry; tags and fusion partners are left off. Residues count along the entry.
UniProt P60484: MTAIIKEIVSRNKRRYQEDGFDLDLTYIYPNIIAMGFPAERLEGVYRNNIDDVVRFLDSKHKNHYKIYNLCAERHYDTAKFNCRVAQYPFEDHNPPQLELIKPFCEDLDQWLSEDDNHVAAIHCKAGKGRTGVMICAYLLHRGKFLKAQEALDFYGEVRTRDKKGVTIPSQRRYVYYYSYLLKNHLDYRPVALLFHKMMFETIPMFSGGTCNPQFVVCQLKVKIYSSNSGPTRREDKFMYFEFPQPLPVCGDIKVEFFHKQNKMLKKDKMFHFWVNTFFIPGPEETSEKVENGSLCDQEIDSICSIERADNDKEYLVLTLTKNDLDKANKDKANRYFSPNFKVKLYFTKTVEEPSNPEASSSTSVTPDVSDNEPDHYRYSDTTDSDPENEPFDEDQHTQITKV
UniProt P05107, residues 23-769: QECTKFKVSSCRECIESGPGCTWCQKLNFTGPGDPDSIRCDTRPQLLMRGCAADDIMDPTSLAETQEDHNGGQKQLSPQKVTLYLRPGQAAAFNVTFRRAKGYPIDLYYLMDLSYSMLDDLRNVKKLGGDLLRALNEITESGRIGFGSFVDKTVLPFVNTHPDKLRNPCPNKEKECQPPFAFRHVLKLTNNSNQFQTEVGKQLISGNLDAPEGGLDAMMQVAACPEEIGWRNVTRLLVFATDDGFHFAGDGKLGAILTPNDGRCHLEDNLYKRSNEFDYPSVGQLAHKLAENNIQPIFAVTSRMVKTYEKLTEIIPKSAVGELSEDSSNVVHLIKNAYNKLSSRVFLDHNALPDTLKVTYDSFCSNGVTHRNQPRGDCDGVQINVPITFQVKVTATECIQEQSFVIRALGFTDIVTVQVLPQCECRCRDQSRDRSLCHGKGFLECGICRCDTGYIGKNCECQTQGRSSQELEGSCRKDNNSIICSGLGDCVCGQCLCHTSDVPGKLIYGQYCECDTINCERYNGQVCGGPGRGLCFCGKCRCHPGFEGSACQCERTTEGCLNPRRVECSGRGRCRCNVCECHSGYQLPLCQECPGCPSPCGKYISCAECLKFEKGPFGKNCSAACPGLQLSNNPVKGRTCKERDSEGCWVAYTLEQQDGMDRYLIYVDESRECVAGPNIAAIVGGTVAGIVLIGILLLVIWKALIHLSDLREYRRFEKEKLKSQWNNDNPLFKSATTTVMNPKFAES

What was measured:
[1] = molecular target: PTEN (human (endogenous in NB4)) (UniProt P60484); test: condition: only cells treated with ATRA + PP2 (20 μM) for 5 days; co-IP; as a1, NB4 WT cells treated with ATRA + PP2 (20 μM, c-SRC inhibitor) for 5 days
[2] = molecular target: PTEN (human (endogenous in NB4)) (UniProt P60484); test: far-Western, overlay or dot blot; modified far-western blot with disuccinimidyl suberate (DSS): bait proteins immunoprecipitated from plasma membrane, renatured and incubated with plasma membrane lysates; bound prey detected by a primary antibody; NB4 WT cells with ATRA for 5 days, also for 2 days, and NB4 WT CD18-/- cells; only the target purified
[3] = molecular target: PTEN (human (endogenous in NB4)) (UniProt P60484); test: co-IP; immunoprecipitation from the plasma membrane fraction (and total cell lysate) of ATRA-treated NB4 WT cells with a polyclonal TG2 antibody and, reciprocally, with antibodies to mTOR, AKT, CD18, p85, PI3K/p110, PTEN and c-SRC; Western blot
[4] = molecular target: CD18 β2-integrin subunit (human (endogenous in NB4)) (UniProt P05107); test: as above
[5] = molecular target: PTEN (human (endogenous in NB4)) (UniProt P60484); test: condition: only cells treated with ATRA + NC9 (30 μM) for 5 days; co-IP; as a1, NB4 WT cells treated with ATRA + NC9 (30 μM, TG2 inhibitor) for 5 days

B1: transglutaminase 2 (protein, UniProt P21980 1-687)
chain: MAEELVLERCDLELETNGRDHHTADLCREKLVVRRGQPFWLTLHFEGRNYEASVDSLTFSVVTGPAPSQEAGTKARFPLRDAVEEGDWTATVVDQQDCTLSLQLTTPANAPIGLYRLSLEASTGYQGSSFVLGHFILLFNAWCPADAVYLDSEEERQEYVLTQQGFIYQGSAKFIKNIPWNFGQFEDGILDICLILLDVNPKFLKNAGRDCSRRSSPVYVGRVVSGMVNCNDDQGVLLGRWDNNYGDGVSPMSWIGSVDILRRWKNHGCQRVKYGQCWVFAAVACTVLRCLGIPTRVVTNYNSAHDQNSNLLIEYFRNEFGEIQGDKSEMIWNFHCWVESWMTRPDLQPGYEGWQALDPTPQEKSEGTYCCGPVPVRAIKEGDLSTKYDAPFVFAEVNADVVDWIQQDDGSVHKSINRSLIVGLKISTKSVGRDEREDITHTYKYPEGSSEEREAFTRANHLNKLAEKEETGMAMRIRVGQSMNMGSDFDVFAHITNNTAEEYVCRLLLCARTVSYNGILGPECGTKYLLNLNLEPFSEKSVPLCILYEKYRDCLTESNLIKVRALLVEPVINSYLLAERDLYLENPEIKIRILGEPKQKRKLVAEVSLQNPLPVALEGCTFTVEGAGLTEEQKTVEIPDPVEAGEEVKVRMDLLPLHMGLHKLVVNFESDKLKAVKGFRNVIIGPA
With B1 the binding [1] was “no binding”, the binding [2] was “binds” and the binding [3] was “binds”. The binding [4] was “binds” and the binding [5] was “no binding”.
